# According to the supplement of paper PMC11417369:
# ± gives the standard deviation of the averaged measurements. The list shows a part of the results.
# Test system: PfAP2-LT AP2 domain (GST-tagged)
# Assay: gcPBM binding intensity (ln(normalized median fluorescence intensity)); higher = stronger DNA binding
# Method in brief: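 GST-tagged P. falciparum DNA-binding domains produced in E. coli were incubated for 1 h on an Agilent 4 × 180k array of primer-extended double-stranded 36-bp intergenic genomic probes with negative controls. Binding intensity is the highest Masliner-normalised natural-log median intensity across replicate spots of either probe orientation, with bound protein detected by Alexa488 anti-GST antibody at 488 nm.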
row,Sequence,gcPBM binding intensity (ln)
1,GAAAACATTAAAAGTTAGATCATAAGAAAAGAATAT [GTGCAC_negctrl_site726],8.84 ± 0.48
2,GTTCATCACATATACACATGCATATTCTAATATGTA [TGCATGCA_site809],8.95 ± 0.41
3,ACATTATATAAAATATGTACATATAAAAAATTCTAT [XGTACX_site1617],8.88 ± 0.48
4,CATATATGTGATAACACGCACACAAATGTATAGAAT [CACACA_site2594],9.54 ± 0.49
5,TTATCATTTGGACACGCACACACACCGAAAAAGAAA [CACACA_site8008],9.6 ± 0.24
6,TTTTTGTAATTATATTAATATATATATATATATATA [CACACA_negctrl_site198],8.84 ± 0.18
7,TTTTTTGCTAAAAAGAGTACTAATAAAAAATTTATT [XGTACX_site5235],8.11 ± 0.42
8,AATAATTTAAGGAATACACACAAGAAAAAAATAAGA [CACACA_site60],9.18 ± 0.42
9,CCACATATACAAAACACACACACAACGTTTTAATAA [CACACA_site1978],9.64 ± 0.37
10,ACAAGAGAAGTAATTGCACACGTTGTTTCTTTTTCT [CACACA_site35],9.12 ± 0.33
11,ATAATAATATAAAATACACACCTATTATTTTTACAA [CACACA_site6069],8.81 ± 0.47
12,TCACTATAGTAATTTACACACATTTGAAGAAAATGT [CACACA_site7626],9.03 ± 0.37
13,TATTTATTTATTTATGCATGCATGAATAATTTTTAC [TGCATGCA_site31],8.88 ± 0.28
14,ATTATTTAGAAATGAGCACACAAAAAGAAGAATTTT [CACACA_site7913],8.71 ± 0.58
15,TTTTAAATTTTTTAAAGTACACGTCGAAAAGGTATA [XGTACX_site76],8.24 ± 0.42
16,AAGAATTATATATTCACACAAAAAAAAAGTAAAAGA [CACACA_site5335],8.72 ± 0.52
17,TATAATATATATATATGTACATATTATTTACATATA [XGTACX_site7312],8.8 ± 0.43
18,AATATATTAAATCTTACACACTAAAAAATATGTAAC [CACACA_site4325],8.75 ± 0.42
19,AAAAAAAAAAAAAAGAGTACATTTATTTATATATCT [XGTACX_site2381],8.46 ± 0.33
20,TTTTAACATAGAAGTACACACATATAATCAATCATA [CACACA_site5313],8.93 ± 0.47
21,ATAAAGAAAATATGGAGTACATTTATATCCAATATA [XGTACX_site3085],8.69 ± 0.43
22,TTTTATGAAAAATGGCTTATCTGTAAAGAAGTGGAG [CACACA_negctrl_site1586],8.41 ± 0.3
23,ATATTTGTAATTATTAAACACACACTAATTATATAT [CACACA_site8803],9.04 ± 0.38

row,Sequence,gcPBM binding intensity (ln)
1,AAATATATACTACCGATGCACTAAATATAAACACAT [GTGCAC_site9777],9.02 ± 0.36
2,TTAATTTTTGAAGGTACACACTAATATATTAAATAT [CACACA_site4791],8.53 ± 0.4
3,AAAACAGACAAACACACACACACATATATATATATA [CACACA_site3393],10.37 ± 0.071
4,CTTTTAATTATAAAATGTACTTAAAAATAATAATAC [XGTACX_site635],8.3 ± 0.47
5,AAAATGAAACAAATATGTACACATATAAATATTTCC [XGTACX_site54],8.94 ± 0.52
6,TTATCCCCCTATCATTGTACATTAATACAAACTAAA [XGTACX_site5630],9.21 ± 0.085
7,ATATATTTATTATTAGGTACACATATATATATATAT [XGTACX_site5045],9.32 ± 0.11
8,TTAAAAAAAAATAAAGGTACACGGAGAAATCCTTTT [XGTACX_site7509],8.46 ± 0.53
9,AACCACCACACCATCACACATAAGATTAGACGAGTA [CACACA_site6063],9.17 ± 0.34
10,TGTAGTAATGCTTATTGTACATATACATTTCTTACA [XGTACX_site219],8.82 ± 0.42
11,TTATATAGAATTAATTTCTTTTTTTTCTTTTTTAAA [CACACA_negctrl_site1308],7.95 ± 0.61
12,ATTTTTTTTTTTTTTTCATGAAATTTTTTTTTTTTT [CACACA_negctrl_site1069],8.71 ± 0.49
13,AAATATTTTTTAATTGTTCACTTGGTGGATCATTAA [CACACA_negctrl_site922],8.43 ± 0.41
14,TATCCATTATTTAAAAGTACAAAAAACGATTTACAC [XGTACX_site2979],8.6 ± 0.38
15,TTTTTTTTTCGCTTTTGTACACATTTTATAGAACAG [XGTACX_site2416],8.73 ± 0.45
16,TATTATATATATGGAAGTACAGGTATATCGTTTTTC [XGTACX_site3771],8.73 ± 0.4
17,TTTTCCCTTAACCTCTGTACATATAATTTTCTTTCC [XGTACX_site4180],8.84 ± 0.61
18,TAGAATATGTTTAGTTGTACAAAACAAAATGGAATT [XGTACX_site5293],8.96 ± 0.46
19,CACATAAAAAAATAAACACACATATGTATATATATA [CACACA_site3177],9.13 ± 0.42
20,ATTTATTTTTTGTGTTCACACATTAGTATCATCTAT [CACACA_site5274],9.1 ± 0.58
21,AAATAAGAAAAAGCGCGTACACATAACATTTTTATA [XGTACX_site8807],9.09 ± 0.45
22,TGCTTTTCTTTTTGCACACTTATGCATATATATATA [CACACA_site2583],9.23 ± 0.38
23,TGTATTCTCTTAGTAGTGCATTTGAAGATTATATAA,8.53 ± 0.36

row,Sequence,gcPBM binding intensity (ln)
1,TTTATTCAAGGAATAGTGCATAATAATAAGTATTAT,8.6 ± 0.45
2,TCTAATGATATATACACACACATATAGATTTATATA [CACACA_site7044],9.15 ± 0.33
3,ATTTTTCTAAAATACTGTACAAAGGTGCATAAAAAG [XGTACX_site4425],8.54 ± 0.42
4,ATATTTATGGAATATACACACATGTATAATTATATA [CACACA_site2033],8.9 ± 0.4
5,TTTTCTGTTTTCATTACACACCTTACAAGAACAATA [CACACA_site2158],8.69 ± 0.45
6,ATATGGAATGATCATAGTACATAATTTAAAATTTTA [XGTACX_site3568],8.73 ± 0.51
7,CTAATTCGTATATGCTGTACCTTTTTCTTACGACTA [XGTACX_site4392],9.07 ± 0.53
8,ACCCTATTTATATATACACACACATATATAAATAAA [CACACA_site8980],9.17 ± 0.28
9,AACATATATAATATTTGTACTTATATACAAAATATG [XGTACX_site7502],8.64 ± 0.4
10,TGTCCTTATTGGCACACACACATATAAGAAATTTAA [CACACA_site5724],9.18 ± 0.45
11,TATTTTTTCTTAAACACACACATATAGATTTATAAC [CACACA_site7354],8.92 ± 0.38
12,TTTTTTAAAGCCTGTTCATCATCCTTACCTATCAAC [GTGCAC_negctrl_site452],8.68 ± 0.52
13,AAAGTATACAATGACGCATGCATATATATATACATA [TGCATGCA_site429],9.31 ± 0.26
14,ATTTATTTATCTAGCTATTCACCATTTTCTTTTGTT [CACACA_negctrl_site1259],9.03 ± 0.47
15,ATAGGATGTTTGCACTGTACCAAAAAATGAGCTGCA [XGTACX_site2825],8.77 ± 0.42
16,ACTTTTTTGAACAACGTGCACGTATTCATAACAAAA,8.6 ± 0.34
17,ATCAGATATATATATTGTACATTTATATATAAATCA [XGTACX_site1960],8.62 ± 0.46
18,CTATAATAGAAGTGTACACACATATTTATGTCTGTA [CACACA_site7462],9.02 ± 0.45
19,TTTTCTTTATTATAATGTACTCACAAATAAATATAA [XGTACX_site7298],8.23 ± 0.45
20,TTTCATTTTAGAAGTACACACAAAAAATAAAATAAT [CACACA_site2141],8.79 ± 0.4
21,AATATCACATTCCACGGTACACACTAAAAGAAAAAT [XGTACX_site7653],9.12 ± 0.43
22,ATAAATACGATTAATTAGGTTTGTATAAATTAAATT [GTGCAC_negctrl_site635],8.55 ± 0.46
23,TCATGTAGTAAAAACTGTACAAATTATTTATCATGT [XGTACX_site1727],8.71 ± 0.39

row,Sequence,gcPBM binding intensity (ln)
1,ATAACTTTTGCGCGTACACACATTTATCCTCTTTAT [CACACA_site209],9.62 ± 0.33
2,CTTAAAAACAAAAATGCACACATAATAAGCATATGT [CACACA_site9149],9.04 ± 0.4
3,ATTAAACTCATTAAGAGTACAGATAACATTAAAGTA [XGTACX_site8697],8.72 ± 0.49
4,TGAAATTAGATATATACACACATATAGATTTATATG [CACACA_site7619],8.88 ± 0.36
5,GATGGGCAAATTTACTGTACTTTTATAATATTTTTT [XGTACX_site4830],8.85 ± 0.43
6,TATAATGGTAAAAACACACAAATATGAAGATGTTAA [CACACA_site6479],8.89 ± 0.41
7,AAAATTGTGAAAGGGAAGATGATCAAATTGTTAAGG [CACACA_negctrl_site1492],8.8 ± 0.66
8,GTACCTATAAATATTACACACATTTTCATTTTTAAC [CACACA_site7022],9.11 ± 0.35
9,AAAAAAAATTATATTTGTACGCATTAAAAAATCTAA [XGTACX_site1616],8.39 ± 0.33
10,CTTTTTCTTTTCCGGCGTACAGACTTAGTAGTAGAT [XGTACX_site2268],8.72 ± 0.36
11,TACTTCATTCATTTTACACACATATAAACCCTTTTA [CACACA_site3229],9.15 ± 0.47
12,TAAAATATAGGAAATACATGCATATTAAATATTCCT [TGCATGCA_site1057],8.73 ± 0.38
13,TACATGCAAAAAATTCCACACACACCCCCACATATA [CACACA_site8329],10.1 ± 0.27
14,TATATAGCTAAAAACACACAAATATGTACACATAAA [CACACA_site7665],9.09 ± 0.4
15,ACTAATACATAAAAAAGTACAAATATGAGTATTAAC [XGTACX_site7281],9.03 ± 0.47
16,AATATTCAATATAAAGTGCATTATTGTGGACCTAAT,8.85 ± 0.42
17,AAATATACATACATATGTACATATATATATATATAT [XGTACX_site8202],9.57 ± 0.14
18,ACAATAAAGAACAGTATGCACTTTTATGCATGCGTA,8.79 ± 0.39
19,ATAGTTAAAAAAAAAAAAAAAAAAAAAAGAGAGAGA [CACACA_negctrl_site1307],8.53 ± 0.54
20,GGGTATACCAATATAACACACATATATATATAATAT [CACACA_site450],9.26 ± 0.42
